Experimental data: publication PMC4336329 (PLoS ONE, 2015)
In all, about 310,000 compounds went through this assay and about 14,000 (4.5%) showed an effect of 50% or more. The effect is printed as a negative number. The list shows a part of the results. Where a SMILES comes first, the peptide text is derived from it. [ ]: non-standard residue; d: D form. Inp = O=C(O)C1CCNCC1

Target: human ether-à-go-go-related gene (hERG) potassium channel (human, UniProt Q12809)
Assay: primary screen, population patch clamp on CHO cells stably expressing hERG
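Note: peak tail current of the secondary pulse compared with the same well before compound.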

Sequence of human ether-à-go-go-related gene (hERG) potassium channel (Q12809 whole entry, looked up): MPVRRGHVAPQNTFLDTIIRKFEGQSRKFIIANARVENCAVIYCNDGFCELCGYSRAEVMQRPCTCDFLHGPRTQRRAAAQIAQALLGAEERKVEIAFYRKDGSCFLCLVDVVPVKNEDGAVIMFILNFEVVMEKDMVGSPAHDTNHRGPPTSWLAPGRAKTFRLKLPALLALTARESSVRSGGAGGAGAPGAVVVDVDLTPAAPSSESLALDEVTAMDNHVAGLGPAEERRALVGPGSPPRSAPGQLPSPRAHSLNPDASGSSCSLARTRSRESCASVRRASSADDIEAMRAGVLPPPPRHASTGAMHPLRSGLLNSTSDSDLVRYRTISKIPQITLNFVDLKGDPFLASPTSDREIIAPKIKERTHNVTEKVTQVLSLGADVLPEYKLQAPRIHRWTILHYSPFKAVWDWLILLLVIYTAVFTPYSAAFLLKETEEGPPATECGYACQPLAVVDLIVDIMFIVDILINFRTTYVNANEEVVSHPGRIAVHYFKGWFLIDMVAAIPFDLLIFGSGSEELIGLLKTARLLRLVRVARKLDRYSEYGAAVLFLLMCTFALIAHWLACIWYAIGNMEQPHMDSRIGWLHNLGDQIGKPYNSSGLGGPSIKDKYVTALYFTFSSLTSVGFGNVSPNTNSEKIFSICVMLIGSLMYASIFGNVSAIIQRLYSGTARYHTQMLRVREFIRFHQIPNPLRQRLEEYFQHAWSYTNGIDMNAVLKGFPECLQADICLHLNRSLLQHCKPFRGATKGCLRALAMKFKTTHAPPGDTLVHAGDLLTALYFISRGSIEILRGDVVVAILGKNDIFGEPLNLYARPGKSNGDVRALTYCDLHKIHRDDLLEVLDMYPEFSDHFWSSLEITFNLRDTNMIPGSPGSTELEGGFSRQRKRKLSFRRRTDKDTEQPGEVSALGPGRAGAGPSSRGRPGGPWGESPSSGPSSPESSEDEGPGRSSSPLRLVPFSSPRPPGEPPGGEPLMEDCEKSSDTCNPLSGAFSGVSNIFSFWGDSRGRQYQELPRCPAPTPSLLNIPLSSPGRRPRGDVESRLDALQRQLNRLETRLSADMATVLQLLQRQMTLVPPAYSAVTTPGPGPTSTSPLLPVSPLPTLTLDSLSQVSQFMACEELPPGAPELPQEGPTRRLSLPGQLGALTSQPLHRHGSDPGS

Point of comparison: `O=C(CSc1nnc2ccccn12)Nc1ccc(S(=O)(=O)N2CCOCC2)cc1`, “hERG current change (%, negative = inhibition) at 10uM” value -5.99%. Against it:
- C/C(=N\NC(=O)c1ccc(Cl)cc1)c1ccc2[nH]ccc2c1 — higher, 17.4%
- CN(C(=O)COC(=O)C1=COCCO1)C1(C#N)CCCCC1 — higher, 5.87%
- Cc1c(C(=O)N2CCOCC2)oc2ccc(S(=O)(=O)N3CCCC3)cc12 — lower, -10.6%
- CC(Sc1nnc(-c2ccc(Cl)cc2)n1N)C(=O)NCC1CCCO1 (centres unmarked) — higher, 9.08%
- CCOC(=O)c1ccc(NC(=O)CCNC(=O)c2ccc([N+](=O)[O-])cc2)cc1 — lower, -46.9%
- COCCNC(=O)c1cc(-c2ccc(Cl)c(Cl)c2)on1 — higher, 2.9%
- COCCOC(=O)c1c(C)n(C)c2ccc(OC(=O)C3CC3)cc12 — higher, -1.05%
- O=C(c1cc([N+](=O)[O-])[nH]n1)N1CCSCC1 — higher, 12.5%
- COc1ccc(N/N=C/c2c(O)n(-c3ccc(C)c(C)c3)c(=O)[nH]c2=O)cc1 — higher, 9.95%
- C=C1CCN([C@H](C(=O)NCc2ccco2)C(C)C)S(=O)(=O)c2ccccc21 — lower, -7.84%
- Cc1ccc2c(c1)N(C(=O)CCC(=O)NCc1cccnc1)CCO2 — lower, -11.5%
- O=C(CSc1nnc(-c2ccc(Br)cc2)n1C1CCCCC1)N1CCCC1 — lower, -28.7%
- COc1ccc(NC(=S)NCCN2CCC(C)CC2)cc1 — lower, -46%
- Cc1cccn2c(=O)c(C=Nc3ccccc3)c(NCCO)nc12 — lower, -9.1%
- O=C(NC1(O)C(=O)c2ccccc2C1=O)c1c(Cl)cccc1Cl — higher, 17.3%
- CC(=O)O.Cc1nc2nc(CSc3nnc(C)s3)cc(=O)n2[nH]1 — higher, 13.9%
- CCc1nc2cccnc2n1-c1ccc(CC(=O)NCCOC)cc1 — higher, 17%
- CCCCCCCCS(=O)CCC(=O)O (centres unmarked) — higher, 21.6%
- N#Cc1ccc(C(=O)CSc2n[nH]c(=O)n2-c2cccnc2)cc1 — lower, -19.3%
- CC(=O)c1ccc(N2CCN(C(=S)NCc3ccco3)CC2)cc1 — lower, -47%
- O=C1NC(=O)C(=C2CCCCCC2)S1 — higher, 1.1%
- CCc1ccc(C(C(=O)NC(C)(C)CC)N(Cc2ccco2)C(=O)Cn2nnc3ccccc32)cc1 (centres unmarked) — higher, 12.9%
- Cc1ccc(CS(=O)(=O)CCC(=O)NCCC(C)C)cc1 — higher, 3.21%
- COc1ccc(-c2nnc(SC)o2)c(OC)c1 — higher, 9.73%
- C/C(=N\N=C1\NC(=O)C(CC(=O)Nc2ccc(C)c(Cl)c2)S1)C(C)(C)C (centres unmarked) — higher, 8.73%
- CCN(CC)S(=O)(=O)c1cccc(NC(=O)COc2ccc(F)cc2Br)c1 — higher, 10.7%
- Clc1ccc(CCNc2ncnc3c2nnn3Cc2ccccc2)cc1 — higher, 1.86%
- Cc1cccc(C)c1N1CCN(c2c(C)cccc2C)CC1 — higher, 16.7%
- COc1ccccc1CNC(=O)C(C)NS(=O)(=O)c1ccc(Br)cc1 (centres unmarked) — higher, 4.27%
- CC(C)c1ccc(NC(=O)COC(=O)c2c[nH]c(=O)[nH]c2=O)cc1 — higher, 13.2%
- O=C1CS/C(=N/N=C/c2ccccc2)N1Cc1ccco1 — higher, 1.4%
- CN1CCCC1CCNc1ccc2oc3ccccc3c(=O)c2c1 (centres unmarked) — lower, -33.9%
- Cc1cc(C)c2c(C)[nH]nc2n1 — higher, 20.7%
- Cc1ccccc1C(=O)NNC(=S)NC(=O)c1cccnc1 — higher, 15.4%
- O=c1cc(N2CCCCC2)c(-c2ccccc2)nn1Cc1ccc(F)cc1 — lower, -14.6%
- CCOC(=O)C1=C(c2ccccc2)N=c2s/c(=C\c3ccco3)c(=O)n2C1c1cccs1 (centres unmarked) — higher, 24.9%
- O=C(NCCN=C1NS(=O)(=O)c2ccccc21)c1ccco1 — higher, 0.103%
- CCC12CC3CC(C1)CC(C(=O)O)(C3)C2 — higher, 0.3%
- CCCC(C(=O)NC1CCCCC1)N(Cc1ccco1)C(=O)CNS(=O)(=O)c1ccccc1 (centres unmarked) — lower, -19%
- CC1=C(C(N)=O)C(c2ccccc2)n2nc(-c3ccncc3)nc2N1 (centres unmarked) — higher, 11.2%
- C/C(=N\NC(=O)c1ccc(F)cc1)c1cccc(NC(=O)c2ccco2)c1 — lower, -21.6%
- Cc1nn(-c2ccccc2)c(N2CCCCC2)c1/C=N/O — lower, -6.56%
- Cc1cc(=O)c2ccccc2s1 — higher, -3.41%
- COC(=O)Cc1ccc(NC(=S)NNC(=O)C2CC2)cc1 — higher, 8.2%
- Cc1ccnc(N2CCN(c3cc(C)c(C#N)c4nc5ccccc5n34)CC2)c1 — lower, -8.93%
- N[C@@H](Cc1ccccc1)C(=O)N1CCC(C(=O)NCC(=O)NCC(=O)O)CC1 (H-F[Inp]GG-OH) — higher, 16.7%
- CN(C)CCN(Cc1ccccc1)S(=O)(=O)c1ccc2c(c1)n(C)c(=O)c(=O)n2C — lower, -10.5%
- Cn1c(=O)c2c(SCC(=O)Nc3nccs3)nc(C3CC3)nc2n(C)c1=O — higher, 17.6%
- CC(=O)c1ccc(OC(C)C(=O)OCC(=O)NCCc2ccccc2)cc1 (centres unmarked) — lower, -6.63%
- Cc1cccc(OCCC(=O)NNC(=O)c2ccoc2C)c1 — higher, -3.74%
- CN1CCN(c2cc(N3CCN(C(=O)c4ccco4)CC3)c3c4c(onc24)-c2ccccc2C3=O)CC1 — higher, -0.549%
- CCc1nccn1Cc1cc(C=O)ccc1OC.Cl — higher, 17.3%
- O=C(CSc1n[nH]c(=O)[nH]c1=O)N/N=C/C=C/c1ccccc1 — higher, 18.1%
- O=C(CN1C(=O)S/C(=C\c2ccccn2)C1=O)Nc1ccccc1 — higher, 16.3%
- COc1cccc(N=Cc2c[nH][nH]c2=O)c1 — higher, 5.26%
- CCc1ccccc1NC(=O)NC1CCCCCCC1 — higher, 18.1%
- CSCC[C@H](NC(=O)c1ccc2ccccc2c1)C(=O)N1CCC2(CC1)NCCc1[nH]cnc12 — higher, -1.09%
- O=C(c1ccc(Cl)cc1)C1CCCN(C(=O)c2csnn2)C1 (centres unmarked) — higher, 0.734%
- COc1cccc(CNC(=O)CCC2CCCN(C(=O)c3cccc4c(C)c(C)[nH]c34)C2)c1 (centres unmarked) — higher, 19.8%
- COc1ccnc(Oc2ccc(F)cc2)c1C#N — higher, 3.33%
- CCCc1nc2c(s1)CCc1onc(-c3ccc(Br)cc3)c1-2 — higher, 8.88%
- Cc1ccc(S(=O)(=O)N2CCCCCC2)cc1C(=O)Nc1cccnc1 — lower, -45.5%
- Cc1cc(=O)oc2c(CN3CCN(C)CC3)c(O)c(Cl)cc12 — lower, -12.9%
- O=C(COc1ccc(Br)cc1)NCCCNC(=O)c1ccncc1 — lower, -45.5%
- CCOC(=O)c1c(S(=O)(=O)NCC(=O)Nc2cccc(C)c2C)c(C)n(C)c1C — higher, 17.4%
- CCNC(=S)N1C2CCC1CC(NC(=O)Nc1ccc(C(=O)OCC)cc1)C2 (centres unmarked) — higher, 24.3%
- Cc1cccc(C(=O)N/N=C2/SCC(=O)N2Cc2ccccc2)c1 — lower, -8.06%
- Brc1ccccc1OCCCCCN1CCOCC1.O=C(O)C(=O)O — lower, -32.4%
- CCCCCCC/C=N/Nc1nnc(Cc2ccccc2)c(=O)[nH]1 — higher, 33.2%
- COc1ccc(CNC(=O)CCc2cc(OC)c(OC)c(OC)c2)cc1 — higher, 12.7%
- Clc1ccc(Cc2noc(-c3cccs3)n2)cc1 — higher, 5.47%
- COc1ccc(OCCCn2c(=O)oc3ccccc32)cc1 — higher, -4.51%
- CCN(CCCNC(=O)c1ccc2c(c1)NC(=O)CN2C)c1cccc(C)c1 — lower, -16.5%
- CC1=CCC2C(=O)N(c3nc(C)cc(C)n3)C(=O)C2C1 (centres unmarked) — higher, 23.9%
- COc1cc(NC(=O)CCCNC(=O)Cn2cnc3sc(C)c(C)c3c2=O)cc(OC)c1OC — higher, -2.74%
- NC(=O)Nc1cc(Cl)ccc1Cl — higher, 2.21%
- CCNc1nc(NCC)nc(N/N=C/c2ccc(N(C)C)cc2)n1 — lower, -7.64%
- O=C(c1cccc(F)c1)N1CCN(C(=O)c2nn3cccnc3c2Cl)CC1 — higher, 1.51%
- Cc1cnc(NC(=O)CSc2nnc(C)n2N)s1 — higher, -1.2%
- CCn1c(=O)n(CC)c2cc(S(=O)(=O)NCCOc3ccccc3)c(C)cc21 — higher, -5.88%
- O=C(O)c1cc(N2C(=O)CCC2=O)ccc1Cl — higher, 7.84%
- CCC(=O)Nc1cc(C(C)C)c(O)cc1C — higher, 7.96%
- c1ccc(Cn2c(-c3ccccc3)nc3nc4ccccc4nc32)cc1 — higher, -4.99%
- COC(=O)C1=C(c2ccc(F)cc2OCc2ccccc2)C[C@@H]2CC[C@H]1N2C(=O)NCc1ccccc1 — higher, -1.03%
- COc1cc2[nH]c(C(=O)Nc3ccc4c(c3)OCCO4)cc2c(OC)c1OC — higher, 9.49%
- CCOC(=O)c1cn[nH]c1NC(=S)Nc1ccccc1 — lower, -10%
- Cc1cccc(N=c2c([N+](=O)[O-])nn(-c3ccc(Cl)cc3)n2O)c1 — higher, -0.317%
- O=C(CC1Nc2ccccc2NC1=O)NCC1COc2ccccc2O1 (centres unmarked) — lower, -11.3%
- COc1ccc(CNc2nc3ccccc3n2C(C)C)c(O)c1 — lower, -6.72%
- O=C(NCCc1ccccc1)c1cc(-c2ccc3c(c2)OCO3)on1 — lower, -7.29%
- CC(C)C(=O)Nc1nnc(CCN2CCOCC2)s1 — higher, 5.7%
